Assay results as given in the supplement of paper PMC8728848.
Some of the results follow.

How the values were obtained:
Test in all cases: glycan array binding signal (z-score within array); higher = stronger binding
Conditions in all cases: glycan notation: IUPAC condensed, linker removed
[1] = biological target: Fuc(a1-2)Gal6S(b1-3)GlcNAc6S
Method in brief: (§1)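 Negative Z-scores can be read as non-binding. The Z-score is calculated within each array and then averaged across arrays of one protein sequence at different concentrations or buffers and across linkers. Arrays, 3228 in all, were curated from the Consortium for Functional Glycomics database and kept only where the protein sequence was available.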

Fuc(a1-2)Gal6S(b1-4)Glc = biological target: Fuc(a1-2)Gal6S(b1-4)Glc
Method in brief: as §1

[2] = biological target: Fuc(a1-2)Gal6S(b1-4)Glc6S
Method in brief: as §1

Fuc(a1-2)[Gal(a1-3)]Gal = biological target: Fuc(a1-2)[Gal(a1-3)]Gal
Method in brief: as §1

[3] = biological target: Fuc(a1-2)[Gal(a1-3)]Gal(b1-3)GalNAc
Method in brief: as §1

[4] = biological target: Fuc(a1-2)[Gal(a1-3)]Gal(b1-3)GalNAc(b1-3)Gal(a1-4)Gal(b1-4)Glc
Method in brief: as §1

[5] = biological target: Fuc(a1-2)[Gal(a1-3)]Gal(b1-3)GlcNAc
Method in brief: as §1

[6] = biological target: Fuc(a1-2)[Gal(a1-3)]Gal(b1-3)GlcNAc(b1-2)Man(a1-3)[Fuc(a1-2)[Gal(a1-3)]Gal(b1-3)GlcNAc(b1-2)Man(a1-6)]Man(b1-4)GlcNAc(b1-4)GlcNAc
Method in brief: as §1

[7] = biological target: Fuc(a1-2)[Gal(a1-3)]Gal(b1-3)GlcNAc(b1-2)Man(a1-3)[Fuc(a1-2)[Gal(a1-3)]Gal(b1-3)GlcNAc(b1-2)Man(a1-6)]Man(b1-4)GlcNAc(b1-4)[Fuc(a1-6)]GlcNAc
Method in brief: as §1

[8] = biological target: Fuc(a1-2)[Gal(a1-3)]Gal(b1-3)GlcNAc(b1-3)GalNAc
Method in brief: as §1

[9] = biological target: Fuc(a1-2)[Gal(a1-3)]Gal(b1-3)GlcNAc(b1-6)GalNAc
Method in brief: as §1

[10] = biological target: Fuc(a1-2)[Gal(a1-3)]Gal(b1-4)Glc
Method in brief: as §1

[11] = biological target: Fuc(a1-2)[Gal(a1-3)]Gal(b1-4)GlcNAc
Method in brief: as §1

[12] = biological target: Fuc(a1-2)[Gal(a1-3)]Gal(b1-4)GlcNAc(b1-2)Man
Method in brief: as §1

[13] = biological target: Fuc(a1-2)[Gal(a1-3)]Gal(b1-4)GlcNAc(b1-2)Man(a1-3)[Fuc(a1-2)[Gal(a1-3)]Gal(b1-4)GlcNAc(b1-2)Man(a1-6)]Man(b1-4)GlcNAc(b1-4)GlcNAc
Method in brief: as §1

[14] = biological target: Fuc(a1-2)[Gal(a1-3)]Gal(b1-4)GlcNAc(b1-2)Man(a1-3)[Fuc(a1-2)[Gal(a1-3)]Gal(b1-4)GlcNAc(b1-2)Man(a1-6)]Man(b1-4)GlcNAc(b1-4)[Fuc(a1-6)]GlcNAc
Method in brief: as §1

[15] = biological target: Fuc(a1-2)[Gal(a1-3)]Gal(b1-4)GlcNAc(b1-3)GalNAc
Method in brief: as §1

[16] = biological target: Fuc(a1-2)[Gal(a1-3)]Gal(b1-4)GlcNAc(b1-3)[Fuc(a1-2)[Gal(a1-3)]Gal(b1-4)GlcNAc(b1-6)]GalNAc
Method in brief: as §1

[17] = biological target: Fuc(a1-2)[Gal(a1-3)]Gal(b1-4)GlcNAc(b1-6)GalNAc
Method in brief: as §1

[18] = biological target: Fuc(a1-2)[Gal(a1-3)]Gal(b1-4)[Fuc(a1-3)]Glc
Method in brief: as §1

[19] = biological target: Fuc(a1-2)[Gal(a1-3)]Gal(b1-4)[Fuc(a1-3)]GlcNAc
Method in brief: as §1

[20] = biological target: Fuc(a1-2)[Gal(a1-3)]Gal(b1-4)[Fuc(a1-3)]GlcNAc(b1-3)GalNAc
Method in brief: as §1

[21] = biological target: Fuc(a1-2)[Gal(a1-4)]Gal(b1-4)GlcNAc
Method in brief: as §1

[22] = biological target: Fuc(a1-2)[GalNAc(a1-3)]Gal
Method in brief: as §1

[23] = biological target: Fuc(a1-2)[GalNAc(a1-3)]Gal(b1-3)GalNAc(a1-3)[Fuc(a1-2)]Gal(b1-4)GlcNAc
Method in brief: as §1

[24] = biological target: Fuc(a1-2)[GalNAc(a1-3)]Gal(b1-3)GalNAc(b1-3)Gal(a1-4)Gal(b1-4)Glc
Method in brief: as §1

[25] = biological target: Fuc(a1-2)[GalNAc(a1-3)]Gal(b1-3)GlcNAc
Method in brief: as §1

[26] = biological target: Fuc(a1-2)[GalNAc(a1-3)]Gal(b1-3)GlcNAc(b1-2)Man(a1-3)[Fuc(a1-2)[GalNAc(a1-3)]Gal(b1-3)GlcNAc(b1-2)Man(a1-6)]Man(b1-4)GlcNAc(b1-4)GlcNAc
Method in brief: as §1

[27] = biological target: Fuc(a1-2)[GalNAc(a1-3)]Gal(b1-3)GlcNAc(b1-2)Man(a1-3)[Fuc(a1-2)[GalNAc(a1-3)]Gal(b1-3)GlcNAc(b1-2)Man(a1-6)]Man(b1-4)GlcNAc(b1-4)[Fuc(a1-6)]GlcNAc
Method in brief: as §1

[28] = biological target: Fuc(a1-2)[GalNAc(a1-3)]Gal(b1-3)GlcNAc(b1-3)GalNAc
Method in brief: as §1

[29] = biological target: Fuc(a1-2)[GalNAc(a1-3)]Gal(b1-3)GlcNAc(b1-6)GalNAc
Method in brief: as §1

[30] = biological target: Fuc(a1-2)[GalNAc(a1-3)]Gal(b1-4)Glc
Method in brief: as §1

[31] = biological target: Fuc(a1-2)[GalNAc(a1-3)]Gal(b1-4)GlcNAc
Method in brief: as §1

[32] = biological target: Fuc(a1-2)[GalNAc(a1-3)]Gal(b1-4)GlcNAc(b1-2)Man
Method in brief: as §1

[33] = biological target: Fuc(a1-2)[GalNAc(a1-3)]Gal(b1-4)GlcNAc(b1-2)Man(a1-3)[Fuc(a1-2)[GalNAc(a1-3)]Gal(b1-4)GlcNAc(b1-2)Man(a1-6)]Man(b1-4)GlcNAc(b1-4)GlcNAc
Method in brief: as §1

[34] = biological target: Fuc(a1-2)[GalNAc(a1-3)]Gal(b1-4)GlcNAc(b1-2)Man(a1-3)[Fuc(a1-2)[GalNAc(a1-3)]Gal(b1-4)GlcNAc(b1-2)Man(a1-6)]Man(b1-4)GlcNAc(b1-4)[Fuc(a1-6)]GlcNAc
Method in brief: as §1

[35] = biological target: Fuc(a1-2)[GalNAc(a1-3)]Gal(b1-4)GlcNAc(b1-3)Gal(b1-4)GlcNAc
Method in brief: as §1

[36] = biological target: Fuc(a1-2)[GalNAc(a1-3)]Gal(b1-4)GlcNAc(b1-3)Gal(b1-4)GlcNAc(b1-3)Gal(b1-4)GlcNAc
Method in brief: as §1

[37] = biological target: Fuc(a1-2)[GalNAc(a1-3)]Gal(b1-4)GlcNAc(b1-3)GalNAc
Method in brief: as §1

[38] = biological target: Fuc(a1-2)[GalNAc(a1-3)]Gal(b1-4)GlcNAc(b1-3)[Fuc(a1-2)[GalNAc(a1-3)]Gal(b1-4)GlcNAc(b1-6)]GalNAc
Method in brief: as §1

[39] = biological target: Fuc(a1-2)[GalNAc(a1-3)]Gal(b1-4)GlcNAc(b1-6)GalNAc
Method in brief: as §1

[40] = biological target: Fuc(a1-2)[GalNAc(a1-3)]Gal(b1-4)[Fuc(a1-3)]GlcNAc
Method in brief: as §1

[41] = biological target: Fuc(a1-2)[GalNAc(a1-3)]Gal(b1-4)[Fuc(a1-3)]GlcNAc(b1-3)GalNAc
Method in brief: as §1

[42] = biological target: Fuc(a1-2)[GalNAc(a1-4)]Gal(b1-4)GlcNAc
Method in brief: as §1

[43] = biological target: Fuc(a1-2)[GalNAc(b1-3)]Gal
Method in brief: as §1

B1: Arath Fbox LD (Arabidopsis thaliana) (protein)
chain: EFSVWLEKASGKRCLMLSAMNLSIIWGDNPQYWQWIPIPESRFEKVAKLRDVCWFEIRGRTNTRVLSPRTRYSAYIVFKGVDKCYGFQNVAIEAAVGVVGQEPSRRLICFSEAIRRGRRNVVKPKQREDGWMEIELGEFFNDGGIMDNDEIEMSALETKQLNRKCGLIIQGIEIRPAKILAAASFLEQKLISEEDLNSAVDHHHHHH
[1]
  glycan array binding signal (z-score): 0.016
Fuc(a1-2)Gal6S(b1-4)Glc
  glycan array binding signal (z-score): 0.262
[2]
  glycan array binding signal (z-score): -0.402
Fuc(a1-2)[Gal(a1-3)]Gal
  glycan array binding signal (z-score): -0.099
[3]
  glycan array binding signal (z-score): 0.53
[4]
  glycan array binding signal (z-score): -0.57
[5]
  glycan array binding signal (z-score): 1.92
[6]
  glycan array binding signal (z-score): -0.506
[7]
  glycan array binding signal (z-score): -0.248
[8]
  glycan array binding signal (z-score): -0.413
[9]
  glycan array binding signal (z-score): -0.254
[10]
  glycan array binding signal (z-score): -0.157
[11]
  glycan array binding signal (z-score): -0.058
[12]
  glycan array binding signal (z-score): -0.448
[13]
  glycan array binding signal (z-score): 0.824
[14]
  glycan array binding signal (z-score): -0.172
[15]
  glycan array binding signal (z-score): 0.04
[16]
  glycan array binding signal (z-score): -0.16
[17]
  glycan array binding signal (z-score): -0.38
[18]
  glycan array binding signal (z-score): -0.421
[19]
  glycan array binding signal (z-score): -0.333
[20]
  glycan array binding signal (z-score): 0.922
[21]
  glycan array binding signal (z-score): -0.285
[22]
  glycan array binding signal (z-score): 0.243
[23]
  glycan array binding signal (z-score): 0.405
[24]
  glycan array binding signal (z-score): -0.608
[25]
  glycan array binding signal (z-score): -0.144
[26]
  glycan array binding signal (z-score): -0.597
[27]
  glycan array binding signal (z-score): -0.214
[28]
  glycan array binding signal (z-score): -0.465
[29]
  glycan array binding signal (z-score): -0.557
[30]
  glycan array binding signal (z-score): 0.172
[31]
  glycan array binding signal (z-score): -0.466
[32]
  glycan array binding signal (z-score): -0.497
[33]
  glycan array binding signal (z-score): -0.107
[34]
  glycan array binding signal (z-score): -0.243
[35]
  glycan array binding signal (z-score): -0.556
[36]
  glycan array binding signal (z-score): -0.59
[37]
  glycan array binding signal (z-score): -0.127
[38]
  glycan array binding signal (z-score): -0.433
[39]
  glycan array binding signal (z-score): -0.583
[40]
  glycan array binding signal (z-score): 1.16
[41]
  glycan array binding signal (z-score): -0.017
[42]
  glycan array binding signal (z-score): 0.47
[43]
  glycan array binding signal (z-score): 1.09
